Reference: the supplement of paper PMC10369915
Some of the results follow. No stated cut-off is given here; in the data, active = 3.2 or more and inactive = the rest. Most of these values are background signal.

B1: IL6ST_Y396_L397V (peptide)
chain: LTNDRYVATLT
B2: IL4R_Y497_A492V (peptide)
chain: VGNPAYRSFSN
B3: IL36A_Y96 (peptide)
chain: DIMDLYNQPEP
B4: INPP5E_Y439_R435Q (peptide)
chain: EQLLDYTRTVQ
B5: INSR_Y1361_Y1361C (peptide)
chain: EEHIPCTHMNG
B6: IL17RB_Y457 (peptide)
chain: DTKDDYNALSV
B7: INSR_Y1185 (peptide)
chain: MTRDIYETDYY
B8: INPPL1_Y987 (peptide)
chain: NNPAYYVLEGV
B9: IGSF9_Y81 (peptide)
chain: RIDPDYVGRVR
B10: IL23R_Y178_T175N (peptide)
chain: YLNSSYINIST
B11: IL1B_Y140_E141N (peptide)
chain: VMSGPYNLKAL
B12: IGSF9_Y656 (peptide)
chain: KRLDGYVLEGR
B13: INAVA_Y333 (peptide)
chain: SLDHPYEKPRK
B14: IMP4_Y226_Y226H (peptide)
chain: ANQDDHISFRH
B15: INSR_Y1190_YF (peptide)
chain: FETDFYRKGGK
B16: IL2RB_Y387 (peptide)
chain: FTYDPYSEEDP
B17: INPP5E_Y439 (peptide)
chain: ERLLDYTRTVQ
B18: IKBKG_Y308_D311N (peptide)
chain: AQADIYKANFQ
B19: IKBKB_Y199 (peptide)
chain: LEQQKYTVTVD
B20: IL3RA_Y328 (peptide)
chain: VICRRYLVMQR
B21: INSR_Y1189_YF (peptide)
chain: IFETDYFRKGG
B22: IL2RB_Y387_D391E (peptide)
chain: FTYDPYSEEEP
B23: IMP4_Y226 (peptide)
chain: ANQDDYISFRH
B24: INAVA_Y333_Y333F (peptide)
chain: SLDHPFEKPRK
B25: IGSF22_Y501_S503I (peptide)
chain: GDPTEYYITAI
B26: INPPL1_Y661_YF (peptide)
chain: SFPPTYRFERG
B27: INPPL1_Y987_N982S (peptide)
chain: SNPAYYVLEGV
B28: INPPL1_Y663_P659S (peptide)
chain: PSTYRYERGSR
B29: INPPL1_Y661 (peptide)
chain: SFPPTYRYERG
B30: INS_Y108_Y108C_YF (peptide)
chain: FQLENCCNGGG
B31: INPPL1_Y663 (peptide)
chain: PPTYRYERGSR
B32: IL17RB_Y447_I451T (peptide)
chain: KYVVVYFRETD
B33: IL1RAPL1_Y615_Q618H (peptide)
chain: TFHNTYHSHMR
B34: IL36A_Y96_P101L (peptide)
chain: DIMDLYNQPEL
B35: INS_Y108_YF (peptide)
chain: FQLENYCNGGG
B36: INSR_Y1190_R1191Q (peptide)
chain: YETDYYQKGGK
B37: INSR_Y1185_M1180I_YF (peptide)
chain: ITRDIYETDFF

Biological target: SHP2 C-SH2 domain E139D
Test: enrichment score (SH2-bound / input frequency) (ratio); bacterial display of known human phosphotyrosine sites (pTyr-Var adds point mutants) read by sequencing; higher = stronger binding; tyrosines were phosphorylated by kinases first
Settings: peptide library: pTyr-Var
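Further: displayed peptides selected on beads carrying the immobilized SH2 domain, with library peptides lacking any tyrosine serving as negative controls.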

Binder | enrichment score
B1 | inactive: 0.754
B2 | inactive: 0.413
B3 | inactive: 0.762
B4 | inactive: 0.887
B5 | inactive: 1.59
B6 | inactive: 0.447
B7 | inactive: 0.662
B8 | inactive: 0.985
B9 | inactive: 0.599
B10 | inactive: 2.47
B11 | inactive: 0.981
B12 | inactive: 0.777
B13 | inactive: 0.554
B14 | inactive: 0.553
B15 | inactive: 0.395
B16 | inactive: 0.583
B17 | inactive: 0.79
B18 | inactive: 0.776
B19 | inactive: 0.755

Binder | enrichment score
B20 | inactive: 0.334
B21 | inactive: 0.821
B22 | inactive: 0.664
B23 | inactive: 0.833
B24 | inactive: 0.741
B25 | inactive: 0.481
B26 | inactive: 0.993
B27 | inactive: 0.967
B28 | inactive: 0.292
B29 | inactive: 0.658
B30 | inactive: 0.692
B31 | inactive: 0.145
B32 | active: 4.48
B33 | inactive: 2.53
B34 | inactive: 0.857
B35 | inactive: 1.98
B36 | inactive: 0.704
B37 | inactive: 0.731

Biological target: SHP2 C-SH2 domain wild-type
Test: as above
Settings: peptide library: pTyr-Var

Binder | enrichment score
B1 | inactive: 0.789
B2 | inactive: 0.58
B3 | inactive: 0.744
B4 | inactive: 0.852
B5 | inactive: 2.53
B6 | inactive: 0.494
B7 | inactive: 0.58
B8 | inactive: 0.848
B9 | inactive: 0.704
B10 | active: 4.25
B11 | inactive: 0.755
B12 | inactive: 0.725
B13 | inactive: 0.74
B14 | inactive: 0.684
B15 | inactive: 0.347
B16 | inactive: 0.605
B17 | inactive: 0.98
B18 | inactive: 0.717
B19 | inactive: 0.943

Binder | enrichment score
B20 | inactive: 0.331
B21 | inactive: 0.846
B22 | inactive: 0.494
B23 | inactive: 0.749
B24 | inactive: 0.723
B25 | inactive: 1.03
B26 | inactive: 0.79
B27 | inactive: 0.894
B28 | inactive: 0.408
B29 | inactive: 0.751
B30 | inactive: 0.646
B31 | inactive: 0.232
B32 | active: 4.69
B33 | inactive: 3.01
B34 | inactive: 0.855
B35 | inactive: 0.949
B36 | inactive: 0.457
B37 | inactive: 0.903

Biological target: SHP2 N-SH2 domain L43F
Test: as above
Settings: peptide library: pTyr-Var

Binder | enrichment score
B1 | inactive: 0.629
B2 | inactive: 0.472
B3 | inactive: 0.748
B4 | inactive: 0.901
B5 | inactive: 2.13
B6 | inactive: 0.56
B7 | inactive: 0.675
B8 | inactive: 0.821
B9 | inactive: 0.711
B10 | active: 4.48
B11 | inactive: 1.02
B12 | inactive: 0.843
B13 | inactive: 0.593
B14 | inactive: 0.697
B15 | inactive: 0.565
B16 | inactive: 0.567
B17 | inactive: 0.902
B18 | inactive: 0.73
B19 | inactive: 0.748

Binder | enrichment score
B20 | inactive: 0.291
B21 | inactive: 0.836
B22 | inactive: 0.558
B23 | inactive: 0.909
B24 | inactive: 0.74
B25 | inactive: 0.735
B26 | inactive: 0.773
B27 | inactive: 0.956
B28 | inactive: 0.371
B29 | inactive: 0.743
B30 | inactive: 1.11
B31 | inactive: 0.253
B32 | active: 9.54
B33 | inactive: 2.67
B34 | inactive: 0.709
B35 | inactive: 1.91
B36 | inactive: 0.739
B37 | inactive: 1

Biological target: SHP2 N-SH2 domain T42A
Test: as above
Settings: peptide library: pTyr-Var

Binder | enrichment score
B1 | inactive: 0.719
B2 | inactive: 0.556
B3 | inactive: 0.624
B4 | inactive: 0.746
B5 | inactive: 1.6
B6 | inactive: 0.471
B7 | inactive: 0.605
B8 | inactive: 0.614
B9 | inactive: 0.564
B10 | active: 9.39
B11 | inactive: 0.991
B12 | inactive: 0.638
B13 | inactive: 0.606
B14 | inactive: 0.667
B15 | inactive: 0.534
B16 | inactive: 0.441
B17 | inactive: 1.04
B18 | inactive: 0.604
B19 | inactive: 0.79

Binder | enrichment score
B20 | inactive: 0.325
B21 | inactive: 0.623
B22 | inactive: 0.448
B23 | inactive: 0.791
B24 | inactive: 0.722
B25 | inactive: 0.764
B26 | inactive: 0.685
B27 | inactive: 0.894
B28 | inactive: 0.411
B29 | inactive: 0.753
B30 | inactive: 0.768
B31 | inactive: 0.219
B32 | active: 8.72
B33 | inactive: 2.52
B34 | inactive: 0.755
B35 | inactive: 1.13
B36 | inactive: 0.587
B37 | inactive: 0.928

Biological target: SHP2 N-SH2 domain T52S
Test: as above
Settings: peptide library: pTyr-Var

Binder | enrichment score
B1 | inactive: 0.78
B2 | inactive: 0.33
B3 | inactive: 0.808
B4 | inactive: 0.887
B5 | inactive: 2.46
B6 | inactive: 0.473
B7 | inactive: 0.603
B8 | inactive: 0.872
B9 | inactive: 0.538
B10 | active: 3.66
B11 | inactive: 0.997
B12 | inactive: 0.671
B13 | inactive: 0.545
B14 | inactive: 0.604
B15 | inactive: 0.493
B16 | inactive: 0.518
B17 | inactive: 0.918
B18 | inactive: 0.889
B19 | inactive: 0.947

Binder | enrichment score
B20 | inactive: 0.269
B21 | inactive: 0.739
B22 | inactive: 0.616
B23 | inactive: 0.799
B24 | inactive: 0.631
B25 | inactive: 0.658
B26 | inactive: 0.807
B27 | inactive: 1
B28 | inactive: 0.255
B29 | inactive: 0.84
B30 | inactive: 0.6
B31 | inactive: 0.215
B32 | active: 11.4
B33 | inactive: 3.09
B34 | inactive: 0.821
B35 | inactive: 1.5
B36 | inactive: 0.509
B37 | inactive: 1.18

Biological target: SHP2 N-SH2 domain wild-type
Test: as above
Settings: peptide library: pTyr-Var

Binder | enrichment score
B1 | inactive: 0.871
B2 | inactive: 0.622
B3 | inactive: 1.03
B4 | inactive: 0.674
B5 | inactive: 2.07
B6 | inactive: 0.687
B7 | inactive: 0.861
B8 | inactive: 0.786
B9 | inactive: 0.712
B10 | inactive: 2.21
B11 | inactive: 0.782
B12 | inactive: 0.816
B13 | inactive: 0.629
B14 | inactive: 0.707
B15 | inactive: 0.433
B16 | inactive: 0.915
B17 | inactive: 1.24
B18 | inactive: 0.835
B19 | inactive: 0.904

Binder | enrichment score
B20 | inactive: 0.228
B21 | inactive: 0.819
B22 | inactive: 0.545
B23 | inactive: 0.642
B24 | inactive: 0.71
B25 | inactive: 0.897
B26 | inactive: 0.826
B27 | inactive: 0.782
B28 | inactive: 0.372
B29 | inactive: 0.525
B30 | inactive: 0.729
B31 | inactive: 0.268
B32 | active: 4.66
B33 | inactive: 2.65
B34 | inactive: 0.968
B35 | inactive: 1.58
B36 | inactive: 0.608
B37 | inactive: 1.24
